In PubChem BioAssay AID1347120 (National Center for Advancing Translational Sciences (NCATS), 2019):
“And” between values parts separate entries of the source, which are not always exact repeats. Equal entries are not always repeated. Among all 390,000 compounds or so, about 930 (0.24%) were called active. The inconclusive results got no clear call from the source; some entries with a clear call stand among them for comparison. The call rests on the fitted dose curve; in most records, active means well fitted activation curve with a large enough effect; inconclusive means small, poorly fitted or top-dose-only effect; inactive means no such curve, though single readings can be large or run the other way. Potencies of inconclusive entries are doubtful fits and often do not repeat.

Assay: qHTS for Suppressors of FUS Proteinopathy: Primary screen using FUS-linked yeast assay; further: nearly all actives have a fitted effect of over 55% in size;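 on growth rescue (activation): plate controls were DMSO vehicle for no effect and reference control for full effect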
Settings: S. cerevisiae FUS-expressing, OD600, 24 h; Potency: growth rescue; growth rescue (activation): at 76.6 µM (top of the series)
In short: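 Yeast expressing FUS under galactose induction, OD 0.005 in 2% galactose medium; compounds in a dilution series, 24 h at 30C. Growth rescue by absorbance at 600 nm; CP55940 positive control, DMSO negative.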
Potency means the concentration at half of the fitted maximal effect; tags describe the fitted curve by direction and shape.

| Compound | growth rescue (activation) | Potency |
| --- | --- | --- |
| CC(=O)Nc1ccc2c3c(cccc13)CC2 | inconclusive: 72.4% [activator] | – |
| Nc1c(C(=O)Nc2ccccc2)c2nc3ccccc3nc2n1CCCN1CCOCC1 | – | inconclusive: 39.8 µM [activator, single point] |
| CO/N=C/c1ccc(N2CCN(C(=O)c3ccc(Cl)cc3Cl)CC2)c([N+](=O)[O-])c1 | – | inconclusive: 56.2 µM [activator, partial curve, poor fit] |
| Cc1nc(N2CCN(c3ccccc3)CC2)nc2c1C(=O)CCC2 | – | inactive |
| COC(=O)[C@]12C[C@H](CC(=O)NCCCCc3ccccc3)C(=O)N(Cc3cccc4ccccc34)C1=C[C@H](C1CCCC1)O[C@@H]2C | – | inconclusive: 7.94 µM [activator, partial curve] |
| CCc1ccc(Sc2cc(C(=O)NC(C)CC)c3ccccc3n2)cc1 (stereo not given) | – | inactive |
| COc1ccc(-c2noc(CSc3nnc(-c4ccncc4)n3-c3ccc(C)cc3)n2)cc1 | – | inconclusive: 17.8 µM [activator, partial curve, poor fit] |
| Cc1cccc(C)c1OCCOC(=O)c1cccc(S(=O)(=O)N2CCOCC2)c1 | – | inconclusive: 50.1 µM [activator, single point] |
| Cc1noc(C)c1S(=O)(=O)N1CCC(C(=O)N2CCN(c3ccc(Cl)cc3)CC2)CC1 | – | inconclusive: 28.2 µM [activator, partial curve, poor fit] |
| O=C(CSc1nnnn1C1CCCC1)Nc1ccc(F)cc1 | – | inactive |
| COC(=O)C1(C(=O)OC)C[C@H](/C=C/c2ccccc2)N(Cc2ccccc2OC)[C@@H]1c1ccccc1 | – | inactive |
| N#Cc1cn(-c2ccccc2)nc1-c1cc2ccccc2oc1=O | – | inconclusive: 44.7 µM [activator, partial curve, poor fit] |
| O=C(NN=C1CCN(Cc2ccccc2)CC1)c1cccc(S(=O)(=O)Nc2ccccc2Cl)c1 | – | inconclusive: 39.8 µM [activator, single point] |
| CCC1CCC(NC(=O)Nc2cccc(OC)c2)CC1 (stereo not given) | – | inactive |
| Cc1ccc([C@H]2C[C@@H](n3cc(COC(=O)c4ccccc4)nn3)[C@H](O)CN2C(=O)C2CCCCC2)cc1 | – | inconclusive: 28.2 µM [activator, single point] |
| CN(C)CCCN1C(=O)c2cccc3c(Br)ccc(c23)C1=O | – | inactive |
| CC(C)c1ccc(NC(=O)c2cc(S(=O)(=O)NCc3ccccc3Cl)ccc2F)cc1 | – | inconclusive: 28.2 µM [activator, single point] |
| CCn1c(O)c(/C=N/NC(=O)c2ccncc2)c(=O)n(CC)c1=S | – | inactive |
| COc1ccc(N2CCC(CNC(=S)Nc3cc(C)cc(C)c3)C2)cc1 (stereo not given) | – | inconclusive: 50.1 µM [activator, single point] |
| CCOC(=O)[C@]12CCCC=C1N(Cc1ccco1)C(=O)[C@H](CC(=O)NCC13CC4CC(CC(C4)C1)C3)C2 | – | inconclusive: 11.2 µM [activator, partial curve, poor fit] |

| Compound | growth rescue (activation) | Potency |
| --- | --- | --- |
| COc1ccc(C2NCCc3c2[nH]c2ccccc32)cc1CN1CCc2cc(OC)c(OC)cc2C1C (stereo not given) | – | inconclusive: 5.01 µM [activator, full curve] |
| COC(=O)C1=C(C)N(Cc2ccco2)C(=O)/C1=C\c1ccc([N+](=O)[O-])cc1 | – | inconclusive: 17.8 µM [activator, single point] |
| CN(C)c1ncnc2c1ncn2[C@H]1CN(Cc2ccc(Cl)cc2)C[C@@H](CO)O1 | – | inactive |
| O=C(N[C@H]1/C=C\[C@@H](O)CCCC1)OCc1ccccc1 | – | inactive |
| CCCCCCCCN1C(=O)[C@H](CC(=O)NCc2ccc(C)o2)C[C@@]2(C(=O)OCC)CCC=C12 | – | inconclusive: 22.4 µM [activator, single point] |
| COC(=O)[C@]12C[C@H](CC(=O)N3CCN(C(=O)C4CC4)CC3)C(=O)N(CCc3ccc(OC)c(OC)c3)C1=C[C@H](C(C)(C)C)O[C@@H]2C | – | inconclusive: 25.1 µM [activator, partial curve, poor fit] |
| Cn1c(-c2sc3cc(C(F)(F)F)cnc3c2-c2ccccc2)n[nH]c1=S | – | inconclusive: 12.6 µM [activator, partial curve] |
| O=[N+]([O-])c1cc(C(F)(F)F)ccc1NCCNC(=S)Nc1ccc(Cl)cc1 | – | inconclusive: 50.1 µM [activator, single point] |
| CN1CCC(N[C@@H](Cc2c[nH]c3ccccc23)C(=O)NCCCc2ccccc2)(C(=O)NCCc2c[nH]c3ccccc23)CC1 | – | inconclusive: 14.1 µM [activator, partial curve] |
| O=C(C1CCC(Cn2c(=O)c3sccc3n(Cc3cccc(F)c3)c2=O)CC1)N1CCCCC1 (stereo not given) | – | inconclusive: 17.8 µM [activator, partial curve, poor fit] |
| O=C1CCC/C(=N\NC(=O)c2ccc(COc3ccccc3-c3ccccc3)cc2)C1 | – | inconclusive: 50.1 µM [activator, single point] |
| CCCOc1cccc(C2C(C(=O)c3cccs3)=C(O)C(=O)N2CCN2CCOCC2)c1 (stereo not given) | – | inactive |
| C[C@H]1/C=C/CC(=O)N[C@@H](c2ccc3ccccc3c2)[C@@H](C)/C=C/CC(=O)N[C@H]1c1ccc2ccccc2c1 | – | inconclusive: 35.5 µM [activator, single point] |
| O=C(Cn1c(=O)oc2cc(S(=O)(=O)N3CCCC3)ccc21)NC1CCCc2ccccc21 (stereo not given) | – | inconclusive: 12.6 µM [activator, partial curve] |
| COc1ccc(NC(=O)CN(C)C(=O)c2cccc(S(=O)(=O)N3CCN(c4ccc(F)cc4)CC3)c2)cc1 | – | active: 22.4 µM |
| CCOc1ccc(S(=O)(=O)N(C)c2ccc(OCC(=O)NCc3ccc(C(=O)OC)cc3)cc2)cc1 | – | inconclusive: 15.8 µM [activator, partial curve, poor fit] |
| O=C(/C=C/c1cccc(Br)c1)c1ccc2c(c1)OCO2 | – | inactive |
| O=C(CCCn1c(=O)c2sccc2n(Cc2ccc(F)cc2)c1=O)NCc1ccco1 | – | inconclusive: 39.8 µM [activator, partial curve, poor fit] |
| CCC(C)Nc1nc2c(c(=O)n(C)c(=O)n2C)n1C (stereo not given) | – | inconclusive: 11.2 µM [activator, single point] |
| Cc1ccc(S(=O)(=O)c2cc3c(=O)n4ccccc4nc3n(Cc3ccco3)c2=N)cc1 | – | active: 14.1 µM |

| Compound | growth rescue (activation) | Potency |
| --- | --- | --- |
| COc1ccc(-n2c(SCC(=O)Nc3nccs3)nnc2-c2ccccc2)cc1 | – | inconclusive: 50.1 µM [activator, single point] |
| O=C(NCc1ccncc1)c1c(F)c(F)c(F)c(F)c1F | inconclusive: 70% [activator] | – |
| Clc1ccc2oc(-c3cccnc3)nc2c1 | – | inactive |
| COCCSc1ccccc1C(=O)Nc1nnc(C)s1 | – | inactive |
| O=c1[nH]c2cc3c(cc2cc1CN(Cc1ccco1)C(=S)NCC1CCCO1)OCCO3 (stereo not given) | – | inconclusive: 20 µM [activator, single point] |
| COc1cccc(CNC(=O)COC(=O)C23CC4CC(CC(Cl)(C4)C2)C3)c1 | – | inconclusive: 22.4 µM [activator, single point] |
| CCOC(=O)c1c(NC(=O)CSc2nnc(-c3c[nH]c4ccccc34)n2CCOC)sc2c1CCCCC2 | – | inconclusive: 28.2 µM [activator, single point] |
| c1ccc2sc(-c3ccc4c(c3)OCO4)nc2c1 | – | inactive |
| CCc1ccccc1NC(=O)CN1C(=O)c2cccnc2Oc2ccc(Cl)cc21 | – | inconclusive: 50.1 µM [activator, single point] |
| CC(C)(C)OC(=O)N1CCC(c2c(C(=O)Nc3ccc4c(c3)OCCO4)cnn2-c2ccccc2)CC1 | – | inconclusive: 17.8 µM [activator, partial curve, poor fit] |
| COCCN(C(=O)CCC(=O)Nc1cc(C)on1)C(C(=O)NC1CCCC1)c1ccc(C)cc1 (stereo not given) | inconclusive: -60.3% [activator] | – |
| CCOC(=O)N1CCC(NC(=O)CS(=O)(=O)Cc2nc(-c3cccc(Cl)c3)oc2C)CC1 | – | inactive |
| O=C(CCC1N=C2c3ccccc3N=C(SCc3ccc(Cl)cc3)N2C1=O)NCc1ccco1 (stereo not given) | – | inconclusive: 44.7 µM [activator, partial curve, poor fit] |
| CCCCCCCCN1C(=O)[C@@H](CC(=O)N2CCC(c3ccccc3)CC2)C[C@@]2(C(=O)OC)C1=C[C@H](COCc1ccccc1)O[C@@H]2C | – | inconclusive: 4.47 µM [activator, full curve] |
| COc1ccc(S(=O)(=O)N(C)C[C@H]2Oc3ccc(NS(=O)(=O)c4ccc(F)cc4)cc3C(=O)N([C@H](C)CO)C[C@@H]2C)cc1 | – | active: 31.6 µM |
| CC(C)CC1C(=O)N(Cc2cn(Cc3ccco3)nn2)CCS(=O)(=O)N1Cc1ccc(-c2ccc(F)cc2)cc1 (stereo not given) | – | inconclusive: 17.8 µM [activator, partial curve] |
| CCCCC(NC(C)=O)c1nc2ccccc2n1CCC (stereo not given) | – | inconclusive: 10 µM [activator, partial curve, poor fit] |
| CCCCNc1c(-c2ccc(OC)c(SC3CCCCC3)c2)nc2ccc(C)cn12 | – | inconclusive: 30.6 µM [activator, single point] and inconclusive: 50.1 µM [activator, single point] |
| CCN(CC)S(=O)(=O)c1ccc(Cl)c(NC(=O)COC(=O)c2nc3nc(C)cc(C)n3n2)c1 | – | inconclusive: 14.1 µM [activator, partial curve] |
| CCOc1ccc2nc(N3CCCC(C(=O)Nc4cccc(Cl)c4C)C3)sc2c1 (stereo not given) | – | inactive |
